# Laboratory results taken from the supplement of paper PMC7826260.
# Some of the results follow. The data describe in vitro nicking of single-stranded DNA by Rep domains at 3 µM enzyme and 37 °C for 1 h; the strands have 90 letters, of which the middle is given. Values are log2 of uncut reads against the no-enzyme pool; the lower, the more was cut; hits are not called. Reads are scaled to the total; values above 0 arise when much of the pool is cut.
# Test system: T1, Rep nickase domain of tomato golden mosaic virus
# T1 sequence (Rep 1-124, printed without the tag): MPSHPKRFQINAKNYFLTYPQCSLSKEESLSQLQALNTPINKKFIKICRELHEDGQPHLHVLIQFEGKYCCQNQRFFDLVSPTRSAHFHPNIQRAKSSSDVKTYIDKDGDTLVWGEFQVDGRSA
# Test: uncleaved DNA left, log2 of reads against the no-enzyme library (log2 ratio); higher = less cleavage (more negative = more Rep cleavage of the k-mer); sequences stand for … in CTCGTCCG…ACCGGAGA
# Procedure: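 A pool of 90-nt single-stranded DNAs with seven random bases just before the constant AC of the nick site (name = the seven bases) was cut by 3 µM recombinant His6-SUMO-tagged Rep nickase domain (300 nM DNA, 50 mM HEPES pH 8.0, 50 mM NaCl, 1 mM MnCl2, 1 h, 37 °C, three replicates). Uncut DNA was amplified and sequenced.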
row,Sequence,uncleaved DNA left (log2)
1,GCACAGT,-0.0711
2,GTCAAAT,0.0795
3,AGGATTC,-0.0427
4,CATGAAT,0.0622
5,GCGCCTT,-0.063
6,TTGCCAA,-0.0889
7,CGTGACC,-0.0515
8,CGTGAAA,0.0874
9,GGTTTCT,-0.0222
10,GTGCCTT,0.019
11,GGCATGA,0.0436
12,GGCCCAA,0.169
13,GGTTACC,0.0331
14,ACGAGCT,0.0561
15,AGGAAAG,-0.00911
16,GGTAGCC,0.126
17,GGCACAC,-0.129
18,TGGCTCC,-0.0246
19,AGGGAAA,0.0858
20,GAGTCGA,0.0643

row,Sequence,uncleaved DNA left (log2)
1,ACTTTTT,-0.1
2,TGAACTC,-0.0379
3,CTGTAAC,0.0461
4,ATGGATT,0.262
5,CCTTCAA,-0.0806
6,AGCAGTC,0.128
7,GCATGCG,-0.196
8,ACCGCGG,0.0888
9,ATGGGCT,0.0588
10,CCGTGTT,-1.96
11,GGCCGCA,-0.0235
12,GGCGCCA,0.0717
13,GTTTACC,0.0866
14,CGCATTG,0.0647
15,CTCGACT,-0.0167
16,AAGCCGT,0.0995
17,GCAAGTT,0.0938
18,AAACCAT,0.017
19,CGCCTGT,-0.152
20,GCTTACG,-0.0413
